Laboratory results reported in PubChem BioAssay AID743255 (National Center for Advancing Translational Sciences (NCATS), 2014).
In all, about 390,000 compounds went through this assay and about 910 (0.23%) were called active. Inconclusive results (about 5%) are left out. The call rests on the fitted dose curve; in most records, active means well fitted inhibition curve with a large enough effect; inconclusive means small, poorly fitted or top-dose-only effect; inactive means no such curve, though single readings can be large or run the other way. The entries are a selection whose mix differs from that of the whole data set.

The compounds below were run against Ubiquitin carboxyl-terminal hydrolase 1 (Homo sapiens) (UniProt O94782) (assay: Inhibitors of USP1/UAF1: Primary Screen). Conditions: recombinant USP1/UAF1, Ub-Rhodamine cleavage fluorescence; activity change, negative = inhibition: at 57.1 µM (top of the series).
Summary of the method: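 In this screen, compounds sit with the deubiquitinase complex (1nM) for 15 min at room temperature before Ub-Rho is added at 150nM final. Fluorescence rise is then followed for 6 reads every 60 seconds.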
Further: nearly all actives have a fitted effect of over 60% in size.
On the % scale 0 is the no-effect control and ±100 the full control effect; potency means the concentration at half of the fitted maximal effect.

Chain of UniProt O94782 (O94782 whole entry, looked up): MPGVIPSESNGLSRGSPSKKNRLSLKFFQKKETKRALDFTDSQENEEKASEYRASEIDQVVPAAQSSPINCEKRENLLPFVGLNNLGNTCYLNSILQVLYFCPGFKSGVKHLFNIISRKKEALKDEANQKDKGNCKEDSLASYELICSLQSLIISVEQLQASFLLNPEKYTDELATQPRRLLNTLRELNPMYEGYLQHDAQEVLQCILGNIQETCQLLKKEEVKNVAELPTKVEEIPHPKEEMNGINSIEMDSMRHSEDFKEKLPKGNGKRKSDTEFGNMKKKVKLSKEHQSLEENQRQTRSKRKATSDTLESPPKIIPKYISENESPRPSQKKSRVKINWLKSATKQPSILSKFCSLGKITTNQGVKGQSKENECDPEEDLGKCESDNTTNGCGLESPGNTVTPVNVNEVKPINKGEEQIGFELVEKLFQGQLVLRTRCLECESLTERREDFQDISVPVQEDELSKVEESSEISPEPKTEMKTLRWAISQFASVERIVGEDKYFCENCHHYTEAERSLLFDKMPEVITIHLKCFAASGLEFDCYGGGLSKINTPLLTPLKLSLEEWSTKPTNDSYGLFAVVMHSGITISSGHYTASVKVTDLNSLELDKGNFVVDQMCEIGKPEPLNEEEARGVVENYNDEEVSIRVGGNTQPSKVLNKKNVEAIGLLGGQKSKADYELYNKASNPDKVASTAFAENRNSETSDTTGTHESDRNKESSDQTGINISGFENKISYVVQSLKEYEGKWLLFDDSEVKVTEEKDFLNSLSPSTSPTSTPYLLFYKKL

Row | SMILES | activity change, negative = inhibition | Potency
1 | CCOC(=O)C1CCCN(S(=O)(=O)c2ccc(F)c(C(=O)Nc3ccc(F)c(F)c3)c2)C1 (stereo not given) | inactive: -19.1% | –
2 | Cc1cccc2nc(-c3ccco3)c(Nc3ccc4c(c3)OCO4)n12 | inactive: -21.6% | –
3 | C=CCNCc1ccc(C(=O)NCCCCCCC)cc1[N+](=O)[O-] | inactive: 27.7% | –
4 | CC(C)(C)c1ccc(NC(=O)C2CCCN(c3cnccn3)C2)cc1 (stereo not given) | inactive: -12.5% | –
5 | CC(C)(C)OC(=O)C[C@H]1C/C=C\C[C@H](CC(=O)N[C@H](CO)Cc2ccccc2)C(=O)N2CCC[C@H]2COC1=O | inactive: -8.28% | –
6 | COc1ccc(-n2c(O)c(/C=N/NS(=O)(=O)c3ccc(C)c([N+](=O)[O-])c3)c3ccccc3c2=O)cc1OC | – | active: 25.1 µM
7 | NC(=O)c1ccc(N=C2C(=O)Nc3ccc([N+](=O)[O-])cc32)cc1 | – | active: 14.1 µM
8 | COc1ccc(NS(=O)(=O)c2cccc(C(=O)N/N=C(/C)c3ccc(-n4ccnc4)cc3)c2)cc1 | inactive: -21.2% | –
9 | CCOC(=O)c1ccc(NS(=O)(=O)c2ccc3oc(=O)[nH]c3c2)cc1 | inactive: -20.4% | –
10 | C[C@H](CO)N1C[C@H](C)[C@@H](CN(C)C(=O)CN2CCOCC2)Oc2cc(Br)ccc2S1(=O)=O | inactive: -31.1% | –
11 | CCN(Cc1ccccc1)C(=O)c1nn(-c2ccc(OC)cc2)c(=O)c2c1c1ccccc1n2C | inactive: -20.9% | –
12 | Cc1cc(C)c(S(=O)(=O)/N=C2/C=C(SCC(=O)O)C(=O)c3ccccc32)cc1C | – | active: 25.1 µM
13 | Cc1cccc(NC(=O)c2ccc(F)c(S(=O)(=O)N3CCC4(CC3)OCCO4)c2)c1 | inactive: -23.9% | –
14 | CCn1cc(C(=O)NCCCN2CCCC(C)C2)c(=O)c2cc(S(=O)(=O)N(C)C3CCCCC3)ccc21 (stereo not given) | inactive: -8.58% | –
15 | CC(=O)NS(=O)(=O)c1ccc(N)cc1 | inactive: -28.6% | –
16 | Cc1c(C(=O)Nc2ccc(F)c(F)c2)oc2ccc(S(=O)(=O)N3CCCCC3)cc12 | inactive: -2.9% | –
17 | COc1ccc(-c2ccc3c(=O)cc(-c4ccsc4)oc3c2)cn1 | inactive: 32.8% | –
18 | CN(C)c1ccc(/C=C(\NC(=O)c2ccccc2)C(=O)NCCCn2ccnc2)cc1 | inactive: -18.4% | –
19 | COCCCNC(=O)CN1C(=O)COc2ccc(S(=O)(=O)N3CCCCCC3)cc21 | inactive: -20.8% | –
20 | O=C(N/C(=C/c1cccc(Br)c1)C(=O)N1CCOCC1)c1ccco1 | inactive: -7.24% | –
21 | CN(C)c1ccc(/C=C(\C#N)C(=O)c2ccccc2)cc1 | – | active: 14.1 µM
22 | COc1cccc2c1C(=O)c1c(O)c3c(c(O)c1C2=O)C[C@@](O)(C(C)=O)C[C@@H]3O[C@H]1C[C@H](N)[C@H](O)[C@H](C)O1 | – | active: 5.62 µM

Row | SMILES | activity change, negative = inhibition | Potency
23 | CCn1c(C(=O)N2CCCC(C(=O)N3CCN(c4ccccc4)CC3)C2)cc2sccc21 (stereo not given) | inactive: 405% | –
24 | O=C(O)C1=C[C@@H](C2CC2)C[C@@H](OCCCCO)O1 | inactive: -19.6% | –
25 | C=CCC[C@H](Cc1ccc(F)cc1)C(=O)OC[C@@H](Cc1c[nH]c2ccccc12)NC(=O)[C@H](CC=C)CC(=O)N(CCO)Cc1ccccc1 | inactive: -20.7% | –
26 | CCn1cc(C(=O)N2CCN(c3ccc(OC)cc3)CC2)c2cc(OC)c(OC)cc2c1=O | inactive: -23.2% | –
27 | CCOC(=O)N1CCN(S(=O)(=O)c2ccc(F)cc2)CC1 | inactive: -4.83% | –
28 | C[C@@H]1CN([C@H](C)CO)C(=O)c2cc(Br)cnc2O[C@H]1CN(C)C(=O)Nc1ccc2c(c1)OCO2 | inactive: -16.6% | –
29 | CC1=C/C(=C(/c2cc(C)c(O)c(Br)c2)c2ccccc2S(=O)(=O)O)C=C(Br)C1=O | inactive: -21.6% | –
30 | CCCCN1CC(CO)Oc2cccc(F)c2S1(=O)=O (stereo not given) | inactive: -25.1% | –
31 | O=C(COc1ccccc1)Nc1nnc(S(=O)(=O)N2CCCCCC2)s1 | inactive: -1.64% | –
32 | C[C@@H]1CN([C@H](C)CO)C(=O)CCCn2nncc2CO[C@@H]1CN(C)C(=O)NC1CCCCC1 | inactive: -15.2% | –
33 | CCc1cccc2cc3c(N)c(C(=O)Nc4ccc(S(=O)(=O)N5CCCC5)cc4)sc3nc12 | inactive: 220% | –
34 | C[C@H]1CN(S(=O)(=O)C(C)(C)C)[C@H](CCO)/C1=C\c1ccccc1 | inactive: -0.728% | –
35 | C[C@H]1CN([C@@H](C)CO)C(=O)CCCn2cc(nn2)CO[C@@H]1CN(C)S(=O)(=O)c1ccc(Oc2ccccc2)nc1 | inactive: -5% | –
36 | Cn1c(O)c(N=Nc2ccc(F)cc2)c2ccccc21 | inactive: 40% | –
37 | OCCN(CCO)c1nc(N2CCCCC2)c2nc(N(CCO)CCO)nc(N3CCCCC3)c2n1 | – | active: 28.2 µM
38 | CC1=C(C(=O)OC(C)C)C(c2ccc(Cl)cc2)n2c(s/c(=C\c3ccc(OCC(=O)O)cc3)c2=O)=N1 (stereo not given) | inactive: 34.1% | –
39 | CS(=O)(=O)/C(C#N)=C/c1c(-c2ccccc2)nc2n1CCS2 | inactive: 48.7% | –
40 | C[C@@H]1CN([C@@H](C)CO)S(=O)(=O)c2ccc(Br)cc2O[C@H]1CN(C)Cc1ccccc1F | inactive: -7.87% | –
41 | C[C@H](CO)N1C[C@H](C)[C@@H](CN(C)S(=O)(=O)c2ccccc2F)OCc2cnnn2CCCC1=O | inactive: 8.6% | –
42 | O=C(C[C@H]1C/C=C\C[C@H](NC(=O)OCC2c3ccccc3-c3ccccc32)C(=O)OC[C@H]2CCCN2C1=O)NCCO | inactive: 7.65% | –
43 | Cc1ccc(CNC(=O)Cn2cccc2C(=O)c2ccccc2C)cc1 | inactive: -26.1% | –
44 | COc1ccc(/C=C2/C(=O)N(CC3CCCO3)C(=S)N2C)c(OC)c1 (stereo not given) | inactive: 56.1% | –

Row | SMILES | activity change, negative = inhibition | Potency
45 | Cc1ccc([C@H]2C[C@@H](O)[C@H](n3cc(C4CC4)nn3)CN2Cc2cccs2)cc1 | inactive: -9.76% | –
46 | C=CC[C@@H](CC(=O)N[C@H](CO)Cc1ccccc1)C(=O)N[C@@H](COC(=O)[C@@H](CC=C)CC(=O)OC(C)(C)C)Cc1ccccc1 | inactive: -9.26% | –
47 | NCCCC[C@@H]1NC(=O)[C@H](CCC(=O)O)NC(=O)c2cc([N+](=O)[O-])cc(I)c2OCC[C@@H](C(N)=O)NC1=O | inactive: -10.8% | –
48 | Nc1c2ccccc2nc2ccccc12 | inactive: 5.74% | –
49 | O=C1Cc2ccccc2C(=O)N1Cc1ccccc1 | – | active: 3.16 µM
50 | N[C@@H](Cc1cc(I)c(Oc2ccc(O)c(I)c2)c(I)c1)C(=O)O | inactive: 12% | –
51 | COc1ccc(Cn2cc3c(-c4ccc(F)cc4)nnc-3c3cc(OC)c(OC)cc32)cc1 | inactive: 114% | –
52 | Cn1nc(C(F)(F)F)cc1-c1ccc(/C=C(\C#N)C(=O)c2ccccc2)s1 | inactive: 44.2% | –
53 | COCCCNC(=O)CCCn1c(SCC(=O)c2ccc(Br)cc2)nc2c(sc3ccccc32)c1=O | inactive: 27% | –
54 | O=C1N[C@@H](Cc2ccccc2)C(=O)N2[C@@H]3N(S(=O)(=O)c4ccc(F)cc4)c4ccccc4[C@]3(Br)C[C@@H]12 | inactive: 21.5% | –
55 | CCO[C@@H]1OC(C(N)=O)=C[C@H](C2CC2)[C@H]1CCCO | inactive: -22.6% | –
56 | COc1ccc(S(=O)(=O)N(C)C[C@H]2OCc3cnnn3CCCC(=O)N([C@H](C)CO)C[C@H]2C)cc1 | inactive: 7.19% | –
57 | O=C(c1cccs1)N1C[C@@H](n2cc(-c3ccc(F)cc3)nn2)[C@H](O)C[C@@H]1c1ccc(Cl)cc1 | inactive: -25.5% | –
58 | COc1ccc(CC(=O)Nc2c(C(=O)N3CCN(c4ccccc4)CC3)oc3ccccc23)cc1OC | inactive: -26.4% | –
59 | C[C@@H]1CN([C@H](C)CO)C(=O)CCCn2nncc2CO[C@H]1CN(C)C(=O)C1CCCCC1 | inactive: -14.2% | –
60 | COCCCNc1c2c3c(cccc3[nH]c1=O)C(=O)c1ccccc1-2 | – | active: 4.47 µM
61 | C[C@H](CO)N1C[C@H](C)[C@H](CN(C)S(=O)(=O)c2ccc3c(c2)OCCCO3)OCc2cnnn2CCCC1=O | inactive: -0.395% | –
62 | C[C@H](CO)N1C[C@H](C)[C@@H](CN(C)Cc2ccc(C(=O)O)cc2)OCc2cnnn2CCCC1=O | inactive: 1.38% | –
63 | COC1=CC(=O)c2ccccc2C1=O | – | active: 12.6 µM
64 | CC(C)(C)OC(=O)C[C@H]1C/C=C\C[C@@H](CC(=O)N[C@H](CO)Cc2ccccc2)C(=O)NCCOC1=O | inactive: -22.9% | –
65 | O=C(OCCNc1ccc(C(F)(F)F)cc1[N+](=O)[O-])c1cc2ccccc2oc1=O | inactive: 116% | –
66 | C=CC[C@@H](CC(=O)N(CCO)Cc1ccccc1)C(=O)N[C@H](COC(=O)[C@@H](CC=C)Cc1ccc(F)cc1)C(C)(C)C | inactive: -8.3% | –

Row | SMILES | activity change, negative = inhibition | Potency
67 | COc1ccc(C(=O)Nc2ccc(NC(=O)c3cccs3)cc2)cc1OC | – | active: 25.1 µM
68 | O=C(O)c1ccc(NC2=C/C(=N/S(=O)(=O)c3cccs3)c3ccccc3C2=O)cc1 | – | active: 5.01 µM
69 | Cc1c(C(=O)N(Cc2ccc(N(C)C)cc2)CC2CCCO2)oc2ccccc12 (stereo not given) | inactive: -5.46% | –
70 | O=C(O)c1cccc(NC2=C(n3nnc4ccccc43)C(=O)c3ccccc3C2=O)c1 | – | active: 28.2 µM
71 | COC(C[C@@H]1O[C@@H]1[C@@H](O)[C@H](C)OCc1ccccc1)OC | inactive: -28.1% | –
72 | O=C(C1=C[C@H](c2ccccc2)C[C@H](OCc2ccc(CO)cc2)O1)N1CCN(Cc2ccc3c(c2)OCO3)CC1 | inactive: -23.4% | –
73 | CCOc1ccc2nc3cc(N=Nc4ccc(N)nc4N)ccc3c(N)c2c1 | – | active: 15.8 µM
74 | COc1ccc(N2CCN(C(=O)c3ccc4c(c3)CCN4S(=O)(=O)c3ccccc3)CC2)cc1 | inactive: -14.9% | –
75 | O=C(CCCN1C(=O)/C(=C\c2ccccc2)SC1=S)Nc1ccccc1O | inactive: -10.5% | –
76 | CN1CCc2c(sc3c2C(=O)NC(c2ccccn2)N3)C1 (stereo not given) | – | active: 31.6 µM
77 | C=CC[C@@H](CC(=O)N(CCO)Cc1ccccc1)C(=O)N[C@H](COC(=O)[C@@H](CC=C)CC(=O)OC(C)(C)C)Cc1c[nH]c2ccccc12 | inactive: -26.3% | –
78 | Nc1ccc(N)c(C(=O)O)c1 | – | active: 20 µM
79 | COc1ccc(OC)c(NC(=O)CCNS(=O)(=O)c2cccc3nsnc23)c1 | inactive: -25.9% | –
80 | Nc1ncnc2c1ncn2C1OC(COP(=O)(O)O)C(O)C1O (stereo not given) | inactive: -11.1% | –
81 | OCC[C@@H]1C[C@@H](O)[C@H](O)[C@]2(OCc3ccccc32)O1 | inactive: -12.9% | –
82 | CCOc1cc(Br)c(/C=C2/C(=O)N(C)C(=S)N2CC(=O)OC)cc1OC | inactive: 93.5% | –
83 | C[C@H](O)CNC(=O)c1[nH]cnc1C(=O)Nc1cccc(Cl)c1 | inactive: -19.2% | –
84 | OCC[C@@H]1C[C@H](O)[C@@H](O)[C@@]2(CCCCO2)O1 | inactive: -14% | –
85 | O=C(Nc1nnc(SCc2ccccn2)s1)C1CC(=O)N(c2ccc(F)cc2)C1 (stereo not given) | inactive: 106% | –
